From the supplement of paper PMC11348887
Structures can show the parent of a compound that is named as a salt. This is one part of the list. Cut-off read from the data, not from the text of the source: active = -2 or less and inactive = the rest. Many values rest on one well or one pass, so single values are uncertain.

tested on: hPSC-derived cortical neurons (WA09); assay: nuclei number (viability) z-score; higher = more surviving cells; settings: 5 µM; treatment: days 7-14 after plating, readout day 21
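Note: nuclei counted from DAPI counterstain by automated high-content image analysis, four fields per well at ×20 in 384-well plates, with sequential b-score then z-score normalization.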

SMILES | nuclei number (z-score)
O=C(Nc1cccc2cccnc12)c1ccc(N2C(=O)[C@@H]3[C@H](C2=O)[C@@H]2C=C[C@H]3C2)cc1 [IWR-1-endo] | inactive: 0.288
C=CCn1c(=O)c2cnc(Nc3ccc(N4CCN(C)CC4)cc3)nc2n1-c1cccc(C(C)(C)O)n1 | inactive: 0.499
CCOc1ccc(NC(=O)CC(C)O)cc1 (stereo unspecified) [Bucetin] | inactive: 0.588
Clc1ccc(C(Cn2ccnc2)OCc2csc3c(Cl)cccc23)c(Cl)c1 (stereo unspecified) [Sertaconazole nitrate] | inactive: -0.706
CC(=O)OCC1=C(C(=O)O)N2C(=O)[C@@H](NC(=O)Cc3cccs3)[C@H]2SC1 [Cephalothin] | inactive: -0.37
Cc1nc2n(c(=O)c1CCN1CCC(c3noc4cc(F)ccc34)CC1)CCCC2O (stereo unspecified) [Paliperidone] | inactive: 0.865
c1cn2cc(-c3ccc4cn[nH]c4c3)nc(Nc3ccc(N4CCOCC4)cc3)c2n1 | inactive: -0.139
C[C@H](CCC(=O)NCCS(=O)(=O)O)[C@H]1CC[C@H]2[C@@H]3[C@@H](O)C[C@@H]4C[C@H](O)CC[C@]4(C)[C@H]3CC[C@]12C [Sodium Tauroursodeoxycholate (TUDC)] | inactive: -0.417
O=C1CCC(N2C(=O)c3ccccc3C2=O)C(=O)N1 (stereo unspecified) [Thalidomide] | inactive: 1.73
NCC[C@H](O)C(=O)N[C@@H]1C[C@H](N)[C@@H](O[C@H]2O[C@H](CN)[C@@H](O)[C@H](O)[C@H]2O)[C@H](O)[C@H]1O[C@H]1O[C@H](CO)[C@@H](O)[C@H](N)[C@H]1O [Amikacin hydrate] | inactive: 0.643
NCC[C@H](O)C(=O)N[C@@H]1C[C@H](N)[C@@H](O[C@H]2O[C@H](CN)[C@@H](O)[C@H](O)[C@H]2O)[C@H](O)[C@H]1O[C@H]1O[C@H](CO)[C@@H](O)[C@H](N)[C@H]1O [Amikacin disulfate] | inactive: -1.15
O=C1c2cccc3c2[C@H](CCC3)CN1[C@@H]1CN2CCC1CC2 [Palonosetron HCl] | inactive: 1.32
COc1cc(/C=C/C(=O)CC(=O)/C=C/c2ccc(O)c(OC)c2)ccc1O [Curcumin] | inactive: 0.85
Cc1cc2c(F)c(Oc3ncnn4cc(OC[C@@H](C)O)c(C)c34)ccc2[nH]1 | inactive: 0.363
O=C(O)CSCC(=O)NC1CCSC1=O (stereo unspecified) [Erdosteine] | inactive: 0.0779
CC(C)CN(C[C@@H](O)[C@H](Cc1ccccc1)NC(=O)O[C@H]1CO[C@H]2OCC[C@H]21)S(=O)(=O)c1ccc(N)cc1 [Darunavir Ethanolate] | inactive: 3.96
